From paper PMC8938449
Where a chain is given by its changes, count along the chain named. Results are given in words; binding and its absence hold for the method and conditions named. In cells and extracts the contact can be indirect. Some results given as binding are weak or reduced against the parent protein; the word gives no strength.

Legend:
[1] = biological target: T1, WT Siwi, expressed in BmN4 cells (Bombyx) (UniProt A8D8P8); experiment: co-IP; immunoprecipitation from the mitochondrial fraction of BmN4 cells that expressed WT Siwi or Siwi K611A under WT Siwi-free conditions; Papi detected with anti-Papi and anti-Papi-pSer547
T1 sequence: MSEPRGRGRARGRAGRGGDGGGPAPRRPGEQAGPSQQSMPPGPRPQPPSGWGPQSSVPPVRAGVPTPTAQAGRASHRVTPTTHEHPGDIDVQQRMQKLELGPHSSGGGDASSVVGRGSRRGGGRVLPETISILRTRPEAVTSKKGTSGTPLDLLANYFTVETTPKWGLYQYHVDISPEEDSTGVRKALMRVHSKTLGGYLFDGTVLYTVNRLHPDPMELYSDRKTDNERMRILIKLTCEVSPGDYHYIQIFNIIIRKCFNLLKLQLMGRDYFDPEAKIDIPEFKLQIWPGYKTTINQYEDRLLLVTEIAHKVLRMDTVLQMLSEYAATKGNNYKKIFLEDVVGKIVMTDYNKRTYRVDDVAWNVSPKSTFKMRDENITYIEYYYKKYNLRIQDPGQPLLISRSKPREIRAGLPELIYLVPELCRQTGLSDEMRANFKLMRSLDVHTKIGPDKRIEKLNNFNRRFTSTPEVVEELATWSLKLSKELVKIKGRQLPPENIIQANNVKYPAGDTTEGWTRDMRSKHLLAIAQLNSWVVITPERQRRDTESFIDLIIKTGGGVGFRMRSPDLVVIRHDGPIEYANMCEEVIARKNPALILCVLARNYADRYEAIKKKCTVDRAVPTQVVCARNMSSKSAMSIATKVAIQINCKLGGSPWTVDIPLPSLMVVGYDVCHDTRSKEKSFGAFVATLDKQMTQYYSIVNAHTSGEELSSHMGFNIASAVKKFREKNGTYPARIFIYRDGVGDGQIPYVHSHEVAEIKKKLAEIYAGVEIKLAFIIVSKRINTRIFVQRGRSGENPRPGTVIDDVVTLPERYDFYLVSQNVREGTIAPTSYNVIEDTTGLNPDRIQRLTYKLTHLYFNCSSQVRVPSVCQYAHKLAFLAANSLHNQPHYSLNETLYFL

[2] = biological target: T2, Siwi K611A mutant (Bombyx) (UniProt A8D8P8); experiment: as above
T2 sequence: T1 sequence with K611A

B1: Papi, endogenous (protein, UniProt H9JD76 1-629)
chain: MSLNTKLALPIALGLSLVTVTAFVAYYVLKRDEEENDNKTVKITKINTIEIHVPKSIVPALIGRNGSNIKDLQKKSGAQIHFKKFTDQDYDVCVVRGRADTTQLAETLIHDFIKQQPTIMSESITVPSWSCGRIIGSGGENVNDISHRSGARVKVESPKSTDKVAEHLVTFRGTKEQIEVAKKLVENCVSLERCRREIEQSKRPPRHSSSPPSPCPSPGDRDADADAQGDVDHTRVKYKRPETTGPSIEVYVSAVSSPSRFWVQFVGPQVAQLDDLVAHMTEYYSKKENREAHTLRHVSVGQVVAAVFRHDGRWYRARVHDIRPNEFDSSQQVADVFYLDYGDSEYVATHELCELRADLLRLRFQAMECFLAGVRPASGEEAVSPSGQTWDKWHPQAVERFEELTQVARWKALVSRTCTYKKTATAEGEKDKEIPGIKLFDVTDEGELDVGAVLVAEGWAVAGPAPSPRPSPPRGHTTPFGDLSKSKVLSMTGGGGRSSSVPKDHKDDGSNVLTVEGDDSKDKDGITASKSLASGLEKSDRHPLSISNFDLSYPDPSRNKQLNGSDDFLHGERQNIDNEITIDTLVPPSPLSNAPILSKTLQDEFKANMNRIDSHHSNLENLGKSAFEK
binding [1]: binds | binding [2]: binds
